Measured values from publication PMC5591645 (Nature structural & molecular biology, 2017).

Biological target: T1, PPP1R15B amino acids 340–698 (R15B) (human, UniProt Q5SWA1 340-698)
T1 sequence: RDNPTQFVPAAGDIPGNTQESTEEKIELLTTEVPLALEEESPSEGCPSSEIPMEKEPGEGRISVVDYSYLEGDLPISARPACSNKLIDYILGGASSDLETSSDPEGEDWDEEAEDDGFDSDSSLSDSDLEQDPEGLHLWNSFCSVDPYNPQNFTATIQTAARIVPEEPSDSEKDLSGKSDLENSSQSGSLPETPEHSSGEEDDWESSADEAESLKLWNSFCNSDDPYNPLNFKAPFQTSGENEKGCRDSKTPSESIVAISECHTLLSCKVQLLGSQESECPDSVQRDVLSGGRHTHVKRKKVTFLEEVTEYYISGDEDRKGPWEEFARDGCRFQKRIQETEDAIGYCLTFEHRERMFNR
Assay: pull-down

binding result: binds
B1: human PP1α […] (PP1) (enzyme)
chain: not shown
modifications: Red-NHS dye label (Monolith NT Protein labeling Kit Red-NHS) in the thermophoresis experiments; unlabelled in the pull-down
